# In the supplement of paper PMC12217912:
# Some of the results follow. The full chains were built here from the parent and the listed change. Values near 0.05 are background.
# B1: TEV protease; numbered along this chain (parent)
# chain: MGESLFKGPRDYNPISSSICHLTNESDGHTTSLYGIGFGPFIITNKHLFRRNNGTLVVQSLHGVFKVKDTTTLQQHLVDGRDMIIIRMPKDFPPFPQKLKFREPQREERICLVTTNFQTKSMSSMVSDTSCTFPSGDGIFWKHWIQTKDGQCGSPLVSTRDGFIVGIHSASNFTNTNNYFTSVPKNFMELLTNQEAQQWVSGWRLNADSVLWGGHKVFMVKPEEPFQPVKEATQL
# Variants of: B1
# Assay: raw area under fraction-flipped curve 0-4 h after induction (AUC4h, not background-subtracted), DNA-recorder readout of cleavage of the substrate (dimensionless); higher = more cleavage of the substrate by the protease variant
# Conditions: temperature: 34 °C; time window: 0-4 h after rhamnose induction
# 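Further: Bxb1 expression induced with 0.2% (w/v) L-rhamnose at OD600 near 0.5, cultures sampled hourly, flipped fraction per protease–substrate barcode pair counted by paired-end Illumina sequencing.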
Variant,area with substrate ENLYFDS,area with substrate ENLYFES,area with substrate ENLYFFS,area with substrate ENLYFGS,area with substrate ENLYFHS,area with substrate ENLYFIS,area with substrate ENLYFKS,area with substrate ENLYFLS,area with substrate ENLYFMS,area with substrate ENLYFPS,area with substrate ENLYFSS,area with substrate ENLYFTS,area with substrate ENLYFWS,area with substrate ENLYFYS,area with substrate ENLYFNS,area with substrate ENLYFVS,area with substrate ENLYFRS
T147W,0.0604,0.0626,0.0463,0.0671,0.0513,0.0576,0.0626,0.0595,0.0609,0.0665,0.0509,0.0461,0.0798,0.0647,,,
F6Y,,0.0623,,,0.0499,,,,0.0436,,,,,0.0535,0.0624,0.0589,
T129C,,0.0648,0.0993,0.0746,,0.063,0.0559,,0.0538,0.0586,0.0704,,0.057,0.0411,0.0354,,
P155N,,,0.0855,0.05,0.0523,0.045,,,0.0496,0.0635,0.0443,0.044,,0.0444,0.0502,0.0286,0.0471
C131D,,,0.0647,0.0467,0.0659,0.0596,0.0678,,,0.0707,,,0.0666,0.0493,,,0.0495
Q74C,0.0372,0.0651,,,,0.0574,0.0536,,0.0792,0.0585,0.0623,0.0661,0.0446,0.0706,0.0725,,0.052
M125S,0.0589,0.0578,,0.0569,0.0561,0.0629,,,0.0777,0.0507,0.0511,0.0648,0.0504,,,0.0615,
T70Q,,0.0527,0.0644,0.0674,,0.0501,0.0485,,0.0629,0.0575,,0.0858,,,,,
E189A,,,,,,,0.0425,0.0452,,0.0658,,0.0601,,,,0.0516,0.0609
D128V,0.0953,0.0662,0.0677,,0.0647,0.0488,,,0.0617,0.0526,0.05,0.0891,0.0528,0.0594,,,
S130I,,0.0547,,0.0485,,0.0455,0.0677,0.0445,0.0578,0.0534,0.0459,0.0643,0.0602,,0.0704,0.061,0.0568
M188E,0.0585,,,0.0455,,0.0538,0.0579,0.0616,,0.0668,,0.0627,0.0452,,,0.0319,
K98M,,0.0729,,0.0642,,0.0541,,,,0.0654,0.0674,0.0507,0.0554,0.0394,0.0619,,0.0595
A207P,0.0523,0.0588,0.0742,,0.0509,,,,,,,,0.0659,0.0555,0.0374,,
V183N,,0.0688,,,,0.054,,,,,0.0664,0.0633,,,,,
V165A,0.0584,0.047,,,0.05,0.0533,0.0571,,0.0473,0.0434,0.0592,0.0499,0.0366,0.0608,0.0495,,
M122N,0.0562,0.0592,0.0647,,0.0595,0.0675,0.056,,0.0647,0.0636,,0.0595,,,0.0854,0.0776,
M122A,,0.0581,,,,0.0588,0.0665,,0.0802,0.0485,0.0709,0.0604,0.0535,0.0579,,0.0564,0.0666
L156G,0.0482,0.0476,0.0611,,,0.0586,0.0609,,0.0628,0.0628,0.0654,0.0356,,,,,0.0406
D82R,,0.0593,,,0.0589,0.0674,,,0.0561,0.0555,0.0666,,,,,,0.0556
Q59F,,,0.0727,0.0559,0.0512,0.0525,,0.0549,0.0643,0.057,0.0542,0.0736,0.0537,,0.0396,0.0599,
Q59M,0.0624,,0.0557,0.0476,,0.0466,0.053,0.0516,0.0511,0.0682,0.0754,0.0196,0.0577,0.0582,,0.0519,0.0589
D79A,,,0.0192,,0.0505,0.0767,,0.0601,0.0651,0.072,0.0749,0.0653,,,,,0.0591
